# In ChEMBL document CHEMBL4888484, “Replenishing the malaria drug discovery pipeline: Screening and hit evaluation of the MMV Hit Generation Library 1 (HGL1) against asexual blood stage Plasmodium falciparum ,using a nano luciferase reporter read-out” (2022):
# In all, about 150,000 compounds went through this assay and about 540 (0.36%) showed an effect of 50% or more. This is one part of the list.
# Tested on: Plasmodium falciparum
# Test: Primary screen in NF54 nanoGlo assay, in single point, at 2uM, 72h; a lower Z score goes with more inhibition
# Type: functional, Erythrocyte
# Conditions: timepoint 72 hour
SMILES,% Inhibition,Z score
C[C@H]1CCn2c(nc3cc(C(=O)N4CCOCC4)ccc32)C1,-22%,3.15
CCC(CN1CCCC(S(C)(=O)=O)C1)NC(=O)OC(C)(C)C (stereo unspecified),7%,-1.28
Cc1onc(C(=O)N2CC3(CCCCC3)C[C@@H]2CO)c1COc1ccccc1,-22%,3.8
CCNC(=O)c1ccc(-c2cc(NC3CCCC3)nc3[nH]ccc23)nc1,-3%,0.57
CC(=O)NCCN(C)[C@@H](C)c1ccc(F)cc1,-9%,1.36
Cc1nc(C)n(C[C@H](O)COCc2ccccc2)n1,-7%,0.8
Cc1cnn(CCC(=O)NC(C)(C)c2c(C)noc2C)c1,1%,-0.08
COc1cccc(OC)c1-c1c(-c2ccccc2)ncn1C[C@H]1COCCO1,-14%,1.34
CN(C(=O)OC(C)(C)C)c1ccc2ccccc2n1,-8%,0.97
CC(OC(=O)C1Cc2ccccc2C(=O)O1)C(=O)Nc1ccc(N2CCCCC2)cc1 (stereo unspecified),-12%,1.6
Cc1cccc(C(=O)N2CC3CCC(N)C3C2)c1C (stereo unspecified),-10%,1.34
C=CCC[C@@H](CN(C)Cc1cccnc1)Oc1cc(C)ccn1,1%,-0.08
c1ccc2c(c1)C[C@H](Nc1nnc(C3CCC3)o1)CO2,6%,-0.59
COC(CS(=O)(=O)N[C@H]1Cc2ccccc2[C@H]1OC)c1ccc(F)cc1 (stereo partly specified),-5%,0.61
CCc1nnc(CNC(=O)Nc2cc3[nH]cnc3c(C)c2C)s1,-9%,1.78
O=S(=O)(NCC1(O)CCC1)c1ccc(Cl)cc1,-2%,0.29
CO[C@H]1COC[C@@H]1NC(=O)c1c(C)noc1C,-26%,2.67
Cc1nnc(N2CCC([C@@H](O)CCc3ccccc3)CC2)s1,-13%,2.09
O=S(=O)(NCCn1cc(-c2cccnc2)cn1)c1ccccc1,21%,-2.72
CCc1nc(CNC(=O)c2c(Br)cnn2CC)co1,-4%,0.71
CC(C)c1nc2ccc(NC(=O)N[C@H]3CCOC(C)(C)C3)cc2s1,-5%,0.55
Cc1ccc(NC(=O)c2coc(CN3CCN(Cc4ccccc4F)CC3)n2)cc1C,-8%,1.53

SMILES,% Inhibition,Z score
FC(F)(F)c1cnc2c(-c3ccc(Cl)cc3Cl)nnc(-c3ccc(Cl)cc3Cl)c2c1,1%,-0.1
CC1CC(C)CN(C(=O)c2cnc3ccccn3c2=O)C1 (stereo unspecified),-13%,2.36
O=C(c1cc[nH]n1)N1CCC(COc2ccccn2)CC1,-9%,1
COc1ccc(C)cc1NC(=O)N1CCC(n2cnc3cccnc32)CC1,-16%,2.11
Cc1nc(Cn2nnnc2-c2ccncc2)no1,-3%,0.23
C=CCN(CC=C)C(=O)Nc1cccc(F)c1,-15%,2.01
Cc1cc(OC2CCN(C(=O)Cn3cccn3)CC2)nc(C)n1,-11%,2.03
Cc1cc(C(=O)Nc2nc(-c3ccccc3)c(C)s2)cs1,-5%,0.46
Cc1nc(CN)ccc1[C@H](C)NCc1cccnc1OCC(F)F,6%,-0.87
N#CC1(C(=O)Nc2ccc(-c3nnc[nH]3)cc2)CCCCC1,-12%,1.83
O=C(CC1(O)CCCC1)NC[C@H](O)c1ccc2ccccc2c1,-7%,0.89
CC(=O)Nc1ccccc1CC(c1c[nH]c2ccccc12)c1c[nH]c2ccccc12,34%,-4.4
CC1CN(C(=O)c2cccc3c2OCO3)CC(C)N1 (stereo unspecified),-4%,0.85
COc1ccc(NC2CC(O)C(CO)O2)cc1 (stereo unspecified),-4%,0.57
CC(NC(=O)C1=NNC(=O)CC1)C1CCCO1 (stereo unspecified),-5%,0.53
CCn1ncnc1[C@H](C)NC(=O)Nc1c(C)noc1C,-15%,2.64
COC(C)c1noc(CNC2CCCCC2C(C)(C)C)n1 (stereo unspecified),-15%,1.99
Cn1ccn2ncc(C(=O)NC(Cc3ccncc3)[C@H]3C[C@@H](O)C3)c12 (stereo partly specified),5%,-0.8
CN(C)c1ccccc1NC(=O)CCc1ccccn1,-13%,1.74
CC1(C(=O)N2C[C@@H](Oc3cccnc3)C[C@H]2C(=O)N2CCOCC2)CCCCC1,-14%,1.87
O=C(NCC[C@@H]1C(=O)Nc2ccccc21)c1cc(OCC(F)F)ccn1,-10%,1.74
